About 11,000 (3.5%) of roughly 310,000 compounds were called active. The inconclusive results got no clear call from the source; some entries with a clear call stand among them for comparison. The call rests on the fitted dose curve; in most records, active means well fitted inhibition curve with a large enough effect; inconclusive means small, poorly fitted or top-dose-only effect, or effect the other way; inactive means flat fitted curve, though single readings scatter. Potencies of inconclusive entries are left out as doubtful fits.
experiment: VP16 counterscreen qHTS for inhibitors of ROR gamma transcriptional activity; conditions: Drosophila S2 Gal4-VP16 UAS-luciferase, luminescence, 20 h; activity, negative = inhibition: at 53.6 µM (top of the series);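 further: Gal4-VP16 expression switched on by copper sulfate through the metallothionein promoter; nearly all actives have a fitted effect of over 50% in size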
On the % scale 0 is the no-effect control and ±100 the full control effect; potency means the concentration at half of the fitted maximal effect; tags describe the fitted curve by direction and shape.

With `O=C(Nc1ccc(S(=O)(=O)N2CCCCC2)cc1)c1ccccc1Cl` as the compound, how does the “activity, negative = inhibition” value read?
Its value is inactive: -29.6%.

Which Potency does the source give for `c1ccc(C2c3[nH]c4ccccc4c3CCN2Cc2cccn2-c2cccnc2)nc1` (stereo not drawn) here?
Its Potency is inconclusive [activator, full curve, poor fit].

Which Potency does the source give for `CCN(CC)CCNC(=O)c1ccc(NC(=O)c2ccc(Cl)c(S(=O)(=O)N3CCCCCC3)c2)cc1` here?
Its Potency is inconclusive [inhibitor, single point].

Which Potency does the source give for `CC(C)(C)NC(=O)c1cc(C(C)(C)C)c(O)c(C(C)(C)C)c1` here?
Its Potency is inconclusive [inhibitor, single point].

With `CC(C)Cc1nc2sc3c(c2c(=O)n1N)CC(C)(C)OC3` as the compound, how does the “activity, negative = inhibition” value read?
Its value is inactive: -13.5%.

Which Potency does the source give for `CCOC(=O)CN1CC23C=CC(O2)C(C(=O)NCc2ccc(C)cc2)C3C1=O` (stereo not drawn) here?
Its Potency is inconclusive [inhibitor, partial curve].

Which Potency does the source give for `C=CCNC(=O)CN1CCC(n2c(C)nc3cc(C(F)(F)F)ccc32)CC1` here?
Its Potency is inconclusive [inhibitor, single point].

For `Cc1nn(C)c(C)c1/C=N/NC(=O)CCn1nc(C)c([N+](=O)[O-])c1C`, which Potency is on record?
The Potency was active: 3.55 µM.

With `CC1(C)Cc2c(cnn2-c2ccccc2)-c2c1c1ccccc1n2CC(O)CCl` (stereo not drawn) as the compound, how does the Potency read?
Its Potency is inconclusive [inhibitor, single point].

With `COc1cc(OC)c(C(=O)Nc2ccc(N(C)C)cc2)cc1OC` as the compound, how does the Potency read?
The Potency was inconclusive [inhibitor, single point].

With `CCNC(=S)N=Nc1c(O)n(Cc2ccc(Cl)cc2)c2ccccc12` as the compound, how does the Potency read?
Its Potency is inconclusive [inhibitor, partial curve].

Which “activity, negative = inhibition” value does the source give for `COc1ccc(C(=O)N/N=C\c2ccc(OC)c(COc3ccccc3Br)c2)c(OC)c1` here?
Its value is inactive: -19.3%.

For `O=C(NCCCc1ccccc1)c1cccs1`, which Potency is on record?
The Potency was inconclusive [inhibitor, full curve].

Which Potency does the source give for `O=C(O)c1cccc(NC(=O)c2ccc(S(=O)(=O)c3ccccc3)cc2)c1` here?
Its Potency is inconclusive [inhibitor, single point].

For `Cc1nc(N2CCN(C(=O)c3ccco3)CC2)c(C#N)c2c1CCCC2`, which Potency is on record?
Its Potency is inconclusive [inhibitor, single point].

For `COc1ccc(C(=O)/C=C/Sc2nc3ccccc3o2)cc1`, which “activity, negative = inhibition” value is on record?
The value was inactive: -16.7%.

For `Cc1c(Cl)cccc1NC(=O)NCc1ccncc1`, which Potency is on record?
The Potency was inconclusive [activator, partial curve].

For `COc1ccc(/C=N/N=C2/NC(=O)C(CC(=O)O)S2)cc1OCc1ccc(Cl)cc1Cl` (stereo not drawn), which “activity, negative = inhibition” value is on record?
The value was inactive: -8.39%.

With `O=C(Nc1ccncc1)c1cccc(S(=O)(=O)N2CCCC2)c1` as the compound, how does the Potency read?
Its Potency is inconclusive [inhibitor, single point].

Which “activity, negative = inhibition” value does the source give for `CCN(CC)S(=O)(=O)c1ccc2oc(C(=O)O)c(C)c2c1` here?
Its value is inactive: 1.29%.

With `COC(=O)c1ccccc1N(Cc1ccccc1)S(C)(=O)=O` as the compound, how does the “activity, negative = inhibition” value read?
Its value is inactive: -0.339%.

Which Potency does the source give for `CCCn1c(NCc2cc(OC)ccc2OC)nc2ccccc21` here?
The Potency was active: 11.2 µM.

Which Potency does the source give for `CC1CCC(C(C)C)C(OC(=O)COC(=O)c2ccc(N)cc2)C1` (stereo not drawn) here?
The Potency was active: 15.8 µM.

For `CC(=O)N1c2ccc(S(=O)(=O)NCC3CCC(C(=O)Nc4cccc(C)n4)CC3)cc2CC1C` (stereo not drawn), which Potency is on record?
The Potency was inconclusive [inhibitor, single point].

Which “activity, negative = inhibition” value does the source give for `O=C(Nc1ccc(F)cc1F)c1ccc(-n2cccn2)nc1` here?
The value was inactive: -14.3%.

Which Potency does the source give for `CNC1=C(Br)C(=O)c2ccncc2C1=O` here?
The Potency was active: 5.62 µM.

With `Cc1ccc2c(c1)c(N=O)c(O)n2Cc1ccc(Cl)cc1` as the compound, how does the Potency read?
The Potency was inconclusive [inhibitor, single point].

For `COCCOC(=O)c1c(C)n(C)c2ccc(OC(=O)c3ccccc3OC)cc12`, which “activity, negative = inhibition” value is on record?
The value was inactive: -10.5%.

With `C=CC(C)(C)c1[nH]c2ccccc2c1C1=C(O)C(=O)C(c2c[nH]c3c(CC=C(C)C)cccc23)=C(O)C1=O` as the compound, how does the Potency read?
Its Potency is inconclusive [inhibitor, partial curve].

With `COc1ccc(OC)c(Nc2c3ccccc3nc3ccccc23)c1` as the compound, how does the Potency read?
The Potency was inconclusive [inhibitor, single point].

For `C=CCN(CC=C)S(=O)(=O)c1ccc(NC(=S)NC(=O)Cc2ccc(OC)cc2)cc1`, which Potency is on record?
Its Potency is inconclusive [inhibitor, single point].

With `CCOc1cccc2c1OC1(CCCCC1)N1N=C(c3cccnc3)CC21` (stereo not drawn) as the compound, how does the Potency read?
Its Potency is inconclusive [inhibitor, single point].

With `Cc1cc(NC(=O)COC(=O)CNS(=O)(=O)c2ccc(C)c(C)c2)no1` as the compound, how does the Potency read?
The Potency was inconclusive [inhibitor, full curve, poor fit].

For `CCCCCCNC(=O)Nc1ccc(S(=O)(=O)Nc2ccc(CCNC[C@H](O)COc3ccc(O)cc3)cc2)cc1`, which Potency is on record?
The Potency was inconclusive [inhibitor, single point].

Which Potency does the source give for `Nc1nc2cc(S(=O)(=O)NC3=NCCCCC3)ccc2s1` here?
Its Potency is inconclusive [inhibitor, single point].

Which “activity, negative = inhibition” value does the source give for `COc1ccccc1-n1cnc2cc(NCc3ccco3)ccc21` here?
The value was inactive: 24.4%.

Which Potency does the source give for `CC(C)N(Cc1cn(C)nc1-c1cccc(Cl)c1)Cc1nccn1C` here?
Its Potency is inconclusive [inhibitor, single point].

Which Potency does the source give for `O=C(NNC1=NCCC1)c1cccc(Br)c1` here?
The Potency was inconclusive [inhibitor, single point].

Which Potency does the source give for `CN(C)S(=O)(=O)Oc1ccsc1C(=O)Nc1ccc(Cl)cc1` here?
The Potency was active: 25.1 µM.

With `CN(C)C(=S)c1ccccc1` as the compound, how does the “activity, negative = inhibition” value read?
The value was inactive: 9.44%.

For `COc1ccc(O)c(CNc2ccccc2F)c1`, which “activity, negative = inhibition” value is on record?
Its value is inactive: 10.8%.

For `O=C(CCNc1ccc(F)cc1)c1cccc([N+](=O)[O-])c1`, which Potency is on record?
Its Potency is inconclusive [inhibitor, single point].

With `C=CCOC(=O)C1=C[C@H](c2csc3ccccc23)[C@@H](CCCO)[C@H](OCC)O1` as the compound, how does the Potency read?
The Potency was inconclusive [inhibitor, single point].

With `O=C(Nc1nc2ccccc2[nH]1)c1ccc(F)c(S(=O)(=O)N2CCOCC2)c1` as the compound, how does the Potency read?
Its Potency is inconclusive [inhibitor, single point].

With `Cc1cccc(N2CCN(C(=O)c3ccc(NC4=NC5CS(=O)(=O)CC5S4)cc3)CC2C)c1` (stereo not drawn) as the compound, how does the “activity, negative = inhibition” value read?
Its value is inactive: -2.13%.

With `Cc1ccc(NCC(O)C(O)C(O)CO)c(N=Nc2ccccc2)c1C` (stereo not drawn) as the compound, how does the “activity, negative = inhibition” value read?
The value was inactive: -5.75%.

With `CN(C)S(=O)(=O)c1cccc(C(=O)NCC(C)(C)CNC(=O)c2cccc(S(=O)(=O)N(C)C)c2)c1` as the compound, how does the “activity, negative = inhibition” value read?
The value was inactive: 0%.

For `COc1ccc(/C=C2/SC(=O)N(NS(=O)(=O)c3ccccc3)C2=S)cc1OC`, which Potency is on record?
Its Potency is inconclusive [inhibitor, single point].

For `S=c1[nH]nc(-c2ccco2)n1/N=C/C(Cl)=C/c1ccccc1`, which Potency is on record?
Its Potency is active: 11.2 µM.

For `Cn1cnc([N+](=O)[O-])c1Sc1ccc(Br)cc1`, which Potency is on record?
Its Potency is inconclusive [inhibitor, single point].

For `O=C(N/N=C/c1ccc(Br)s1)Nc1ccccc1`, which Potency is on record?
The Potency was inconclusive [inhibitor, single point].

For `COC(=O)/C=C1\S/C(=N/NC(=O)c2ccccc2)NC1=O`, which Potency is on record?
Its Potency is active: 11.2 µM.

With `NS(=O)(=O)c1ccc(Cc2ncc(C(F)(F)F)cc2Cl)s1` as the compound, how does the “activity, negative = inhibition” value read?
Its value is inactive: 20.7%.

For `C[C@@H]1CNCCN1S(=O)(=O)c1cccc2cnccc12`, which Potency is on record?
The Potency was active: 25.1 µM.

With `O=C(Nc1ccncc1)c1cc([N+](=O)[O-])ccc1Cl` as the compound, how does the Potency read?
The Potency was inconclusive [inhibitor, single point].

For `COc1ccc(-c2cc(C(=O)N/N=C/c3cccnc3)c3cc(C)cc(C)c3n2)cc1`, which Potency is on record?
Its Potency is inconclusive [inhibitor, single point].

For `CC(=O)/C(CN1CCCCC1)=N\O`, which “activity, negative = inhibition” value is on record?
Its value is inactive: 1.23%.

Which Potency does the source give for `O=S(=O)(CCSc1nc2ccccc2o1)c1nc2ccccc2s1` here?
The Potency was inconclusive [inhibitor, single point].

With `COc1ccc(CN2CCCC(N3CCN(c4cccc(Cl)c4)CC3)C2)cc1OC` (stereo not drawn) as the compound, how does the “activity, negative = inhibition” value read?
Its value is inactive: -8.53%.

With `CC(C)=NOc1cc(NC(=O)CCl)cc([N+](=O)[O-])c1` as the compound, how does the Potency read?
The Potency was active: 7.08 µM.

Which Potency does the source give for `CCOc1ccc(OCCC(=O)OCC(=O)N2CCN(S(=O)(=O)c3ccc(Cl)cc3)CC2)cc1` here?
The Potency was active: 17.8 µM.

For `CCCCOC(=O)c1ccc(NC(=O)C(=O)NCc2ccncc2)cc1`, which Potency is on record?
The Potency was inconclusive [inhibitor, single point].

Which Potency does the source give for `COc1ccc(/C=C/C(=O)NCc2c(C)nn(C)c2C)cc1COc1ccc(Br)cc1` here?
Its Potency is inconclusive [inhibitor, single point].

Which Potency does the source give for `CCCCOc1cccc(C(=O)NC(=S)Nc2cccc(C(F)(F)F)c2)c1` here?
The Potency was active: 2.82 µM.

Which Potency does the source give for `Cc1ccc(NS(=O)(=O)c2ccc(N/N=C/c3ccccc3OCC(=O)O)c([N+](=O)[O-])c2)c(C)c1` here?
Its Potency is inconclusive [inhibitor, single point].

Which “activity, negative = inhibition” value does the source give for `CCCc1nc(SCc2ccccn2)c2c(=O)n(C)c(=O)n(C)c2n1` here?
Its value is inactive: 5.24%.

Which Potency does the source give for `Cc1ccc(CSc2nnc(SCC(=O)N/N=C/c3ccc(C(=O)O)cc3)s2)cc1` here?
The Potency was inconclusive [inhibitor, single point].

With `CCCNC(=S)Nc1cccc(C(F)(F)F)c1` as the compound, how does the Potency read?
Its Potency is inconclusive [inhibitor, single point].

With `COc1ccc2c(c1)CC/C(=C/c1cc(OC)c(OC)c(OC)c1)C2=O` as the compound, how does the Potency read?
The Potency was inconclusive [inhibitor, partial curve].

With `c1ccc(C2=NNC(=NCc3ccc4c(c3)OCO4)SC2)cc1` as the compound, how does the Potency read?
Its Potency is inconclusive [inhibitor, single point].

With `COc1ccc(CCn2c(=S)[nH]c3ccc(N4CCOCC4)cc3c2=O)cc1OC` as the compound, how does the Potency read?
The Potency was inconclusive [inhibitor, single point].

With `CN(C)C(=O)N1CCN(c2nc(-c3ccccc3)cs2)CC1` as the compound, how does the “activity, negative = inhibition” value read?
Its value is inactive: -26.7%.

For `CCOc1ccc(C(=O)C2CCN(C(=O)c3ccc([N+](=O)[O-])cc3)CC2)cc1`, which Potency is on record?
Its Potency is inconclusive [inhibitor, partial curve].

From PubChem BioAssay AID2546 (National Center for Advancing Translational Sciences (NCATS), 2010)
